The structures appear in SMILES notation. This is one part of the list.

One assay concerns HSkMC. In words: cytotoxicity call (relative viability < 0.9). The settings on record: 10 µM.
The next assay relates to HepG2. Briefly: cytotoxicity call (relative viability < 0.9). The following applies: 10 µM.
In another assay the test system is S. aureus RN4220. In words: growth inhibition call (relative growth <= 0.2). The settings on record: 50 µM.

`C[C@@H]1CN([C@@H](C)CO)C(=O)Cc2cc(NS(=O)(=O)c3cn(C)cn3)ccc2O[C@H]1CN(C)S(=O)(=O)c1ccc(Cl)cc1`: the cytotoxicity call with HSkMC and in the assay with HepG2 was “inactive” each time. Further, the growth inhibition call in the assay on S. aureus RN4220 is “inactive”.

Turning to `COc1ccc(S(=O)(=O)N[C@H]2C=C[C@@H](CC(=O)N3CCN(c4ccccc4)CC3)O[C@H]2CO)cc1`, the cytotoxicity call in the assay on HSkMC and with HepG2 was “inactive” each time. Further, the growth inhibition call with S. aureus RN4220 was “inactive”.

As to `N[C@H]1CCc2nc3ccccc3c(=O)n2[C@@H]1c1ccsc1`, the cytotoxicity call in the assay with HSkMC and in the assay on HepG2 was “inactive” throughout. Also, the growth inhibition call in the assay with S. aureus RN4220 was “inactive”.

Take `C#CCN([C@H](/C=C/C1CC1)[C@@H](O)Cc1ccccc1)[C@@H](Cc1ccc(-n2cc(CCC(=O)NO)nn2)cc1)C(=O)OC`: the cytotoxicity call in the assay with HSkMC and in the assay with HepG2 was “inactive” throughout. Moreover, the growth inhibition call with S. aureus RN4220 was “inactive”.

In the case of `Cc1noc(C)c1NC(=O)N(C)C[C@@H]1OCCCC[C@@H](C)Oc2ccc(NC(=O)Cc3ccccc3)cc2C(=O)N([C@@H](C)CO)C[C@H]1C`, the cytotoxicity call in the assay on HSkMC and in the assay on HepG2 was “inactive” in each case. The growth inhibition call in the assay on S. aureus RN4220 is “inactive”.

`C[C@@H]1CN([C@@H](C)CO)C(=O)c2cc(C#CC3(O)CCCC3)cnc2O[C@H]1CN(C)C(=O)Cc1ccccc1`: the cytotoxicity call in the assay with HSkMC and in the assay with HepG2 was “inactive” each time. Besides, in the assay on S. aureus RN4220, the growth inhibition call is “inactive”.

Consider `[N-]=[N+]=Nc1ccccc1[C@H]1OC(c2ccc(OCCCO)cc2)=N[C@@]1(CCS(=O)(=O)c1ccccc1)C(=O)NCc1ccccc1`, for which the cytotoxicity call in the assay on HSkMC and with HepG2 was “inactive” each time. In addition, the growth inhibition call in the assay with S. aureus RN4220 is “inactive”.

Consider `Cc1noc(C)c1NC(=O)Nc1ccc2c(c1)C(=O)N([C@H](C)CO)C[C@@H](C)[C@H](CN(C)Cc1ccc3c(c1)OCO3)OCCCC[C@@H](C)O2`, for which the cytotoxicity call in the assay with HSkMC and in the assay on HepG2 was “inactive” in each case. Besides, the growth inhibition call with S. aureus RN4220 is “inactive”.

With `C[C@@H]1CN([C@@H](C)CO)C(=O)c2cc(NC(=O)CCCN(C)C)ccc2O[C@H]1CN(C)Cc1ccccc1`, the cytotoxicity call with HSkMC and in the assay with HepG2 was “inactive” in each case. In the assay on S. aureus RN4220, the growth inhibition call was “inactive”.

For `C[C@@H]1CN([C@H](C)CO)C(=O)Cc2cc(NS(=O)(=O)c3cccs3)ccc2O[C@H]1CN(C)Cc1ccc(Oc2ccccc2)cc1`, in the assay on HSkMC, the cytotoxicity call is “inactive”. For the same compound, the cytotoxicity call with HepG2 was “active”. Besides, the growth inhibition call with S. aureus RN4220 was “inactive”.

Regarding `COc1cc(OC)cc(C(=O)OCCN2CCCN(CCOC(=O)c3cc(OC)cc(OC)c3)CC2)c1`, the cytotoxicity call in the assay on HSkMC and with HepG2 was “inactive” in each case. In the assay on S. aureus RN4220, the growth inhibition call is “inactive”.

Take `C[C@H](CO)N1C[C@H](C)[C@H](CN(C)C(=O)NC2CCCCC2)OCCCC[C@H](C)Oc2ccc(NC(=O)c3ccncc3)cc2C1=O`: the cytotoxicity call with HSkMC and in the assay on HepG2 was “inactive” each time. In addition, in the assay on S. aureus RN4220, the growth inhibition call was “inactive”.

On to `C=CCNC(=O)CSc1nc(=O)cc(N)[nH]1`, for which the cytotoxicity call with HSkMC and with HepG2 was “inactive” each time. The growth inhibition call in the assay on S. aureus RN4220 was “inactive”.

On to `C[C@@H]1CCCCO[C@H](CN(C)C(=O)C2CCCCC2)[C@H](C)CN([C@H](C)CO)C(=O)c2cc(NC(=O)NC3CCCCC3)ccc2O1`, for which the cytotoxicity call in the assay with HSkMC and in the assay with HepG2 was “inactive” in each case. In addition, the growth inhibition call in the assay on S. aureus RN4220 is “inactive”.

On to `Cc1nn2c(N)csc2nc1=O`, for which the cytotoxicity call in the assay with HSkMC and in the assay with HepG2 was “inactive” throughout. The growth inhibition call in the assay on S. aureus RN4220 is “inactive”.

With `C=CCCN(CC#C[C@H]1Oc2ccccc2S(=O)(=O)N2CCC[C@@H]12)S(=O)(=O)c1ccc(C)cc1`, the cytotoxicity call with HSkMC was “inactive”. The cytotoxicity call with HepG2 was “active”. Also, the growth inhibition call with S. aureus RN4220 was “inactive”.

As to `Cc1noc(C)c1S(=O)(=O)N(C)C[C@@H]1OCCCC[C@@H](C)Oc2ccc(N(C)C)cc2C(=O)N([C@@H](C)CO)C[C@H]1C`, the cytotoxicity call in the assay with HSkMC and with HepG2 was “inactive” throughout. The growth inhibition call in the assay with S. aureus RN4220 is “inactive”.

On to `CC(C)NC(=O)N(C)C[C@@H]1Oc2cc(C#Cc3cccc(F)c3)ccc2S(=O)(=O)N([C@H](C)CO)C[C@H]1C`, for which the cytotoxicity call in the assay on HSkMC and in the assay with HepG2 was “inactive” in each case. In the assay on S. aureus RN4220, the growth inhibition call is “inactive”.

Regarding `CO[C@@H]1CN(C)C(=O)c2ccc(NC(=O)Nc3ccccc3)cc2OC[C@H](C)N(C(=O)CN(C)C)C[C@@H]1C`, the cytotoxicity call with HSkMC and in the assay with HepG2 was “inactive” throughout. Further, the growth inhibition call in the assay with S. aureus RN4220 was “inactive”.

Consider `CCCCC/C=C\C/C=C\CCCCCCCC(N)=O`, for which the cytotoxicity call in the assay with HSkMC and in the assay on HepG2 was “inactive” in each case. In addition, the growth inhibition call with S. aureus RN4220 was “inactive”.

For the compound `Cl.NNc1nncc2ccccc12`, the cytotoxicity call in the assay on HSkMC and in the assay with HepG2 was “inactive” each time. Also, the growth inhibition call in the assay on S. aureus RN4220 is “inactive”.

Consider `C=CC[C@H](CC(=O)NCCO)C(=O)N[C@H](COC(=O)[C@@H](CC=C)CC(=O)OC(C)(C)C)c1ccccc1`, for which the cytotoxicity call with HSkMC and in the assay on HepG2 was “inactive” throughout. Moreover, in the assay with S. aureus RN4220, the growth inhibition call was “inactive”.

`C[C@H]1CCCCO[C@@H](CN(C)C(=O)Cc2ccccc2)[C@@H](C)CN([C@@H](C)CO)C(=O)c2cc(NS(=O)(=O)c3ccc(F)cc3)ccc2O1`: the cytotoxicity call with HSkMC was “inactive”. The cytotoxicity call with HepG2 is “active”. Besides, the growth inhibition call with S. aureus RN4220 was “inactive”.

As to `C[C@H]1CN([C@@H](C)CO)C(=O)c2cc(NS(C)(=O)=O)ccc2O[C@H]1CN(C)Cc1ccc(C(F)(F)F)cc1`, the cytotoxicity call in the assay with HSkMC and with HepG2 was “inactive” throughout. The growth inhibition call with S. aureus RN4220 was “inactive”.

`C[C@H]1CCCCO[C@H](CN(C)S(=O)(=O)c2ccccc2)[C@@H](C)CN([C@@H](C)CO)C(=O)c2cc(NS(=O)(=O)c3cn(C)cn3)ccc2O1`: the cytotoxicity call in the assay on HSkMC and in the assay with HepG2 was “inactive” in each case. Besides, the growth inhibition call in the assay with S. aureus RN4220 is “inactive”.

With `CN1CCN(C(=O)C[C@H]2CC[C@H]3[C@@H](COC[C@@H](O)CN3C(=O)C3CC3)O2)CC1`, the cytotoxicity call in the assay with HSkMC and with HepG2 was “inactive” in each case. Further, the growth inhibition call in the assay with S. aureus RN4220 was “inactive”.

Turning to `COc1ccccc1C(=O)Nc1ccc2c(c1)C(=O)N(C)[C@H]1CC[C@H](CC(=O)NCc3ccc(Cl)c(Cl)c3)O[C@H]1CO2`, the cytotoxicity call with HSkMC is “inactive”. Further, in the assay on HepG2, the cytotoxicity call is “active”. Moreover, the growth inhibition call in the assay on S. aureus RN4220 is “inactive”.

In the case of `C[C@H](CO)N1C[C@H](C)[C@@H](CN(C)C(=O)Nc2cccc3ccccc23)OCCCC[C@H](C)Oc2ccc(NC(=O)Nc3ccccc3)cc2C1=O`, the cytotoxicity call in the assay with HSkMC and in the assay with HepG2 was “inactive” throughout. For the same compound, the growth inhibition call with S. aureus RN4220 is “inactive”.

Take `C[C@@H]1CN([C@H](C)CO)C(=O)CCCn2cc(nn2)CO[C@H]1CN(C)S(=O)(=O)c1cccc(C#N)c1`: the cytotoxicity call with HSkMC and with HepG2 was “inactive” throughout. Further, in the assay with S. aureus RN4220, the growth inhibition call is “inactive”.

As for `COc1ccc(S(=O)(=O)Nc2cccc3c2O[C@H](CN(C)S(=O)(=O)c2ccc(F)cc2)[C@H](C)CN([C@@H](C)CO)C3=O)cc1`, the cytotoxicity call in the assay with HSkMC and with HepG2 was “inactive” in each case. Moreover, the growth inhibition call in the assay on S. aureus RN4220 was “inactive”.

Take `COc1ccc(S(=O)(=O)N(C)C[C@H]2OCCCC[C@H](C)Oc3ccc(NC(=O)Nc4ccccc4)cc3C(=O)N([C@@H](C)CO)C[C@H]2C)cc1`: the cytotoxicity call in the assay on HSkMC and with HepG2 was “inactive” throughout. The growth inhibition call in the assay on S. aureus RN4220 was “inactive”.

`O=C1CCC(=O)N1CN1CCOCC1`: the cytotoxicity call in the assay on HSkMC and in the assay with HepG2 was “inactive” in each case. Further, the growth inhibition call in the assay with S. aureus RN4220 was “inactive”.

On to `C[C@H]1CCCCO[C@@H](CN(C)C(=O)Nc2cccc3ccccc23)[C@@H](C)CN([C@@H](C)CO)C(=O)c2cc(NS(=O)(=O)c3cn(C)cn3)ccc2O1`, for which the cytotoxicity call in the assay with HSkMC and with HepG2 was “active” throughout. Also, the growth inhibition call with S. aureus RN4220 was “inactive”.

For `COc1cccc(NC(=O)N[C@@H]2CC[C@@H](CC(=O)N3CCOCC3)O[C@H]2CO)c1`, the cytotoxicity call in the assay on HSkMC and in the assay on HepG2 was “inactive” each time. The growth inhibition call in the assay on S. aureus RN4220 is “inactive”.

For the compound `CN(C)C(=O)C1CCN(S(C)(=O)=O)CC1`, the cytotoxicity call in the assay on HSkMC and in the assay with HepG2 was “inactive” each time. For the same compound, in the assay with S. aureus RN4220, the growth inhibition call was “inactive”.

As for `C[C@H]1CN([C@@H](C)CO)C(=O)c2cc(NC(=O)NC3CCCCC3)ccc2O[C@@H]1CN(C)Cc1ccc(C(F)(F)F)cc1`, the cytotoxicity call with HSkMC and in the assay with HepG2 was “inactive” each time. The growth inhibition call with S. aureus RN4220 is “inactive”.

Turning to `C[C@@H]1CN([C@H](C)CO)C(=O)c2cc(NS(=O)(=O)c3ccc(F)cc3)ccc2O[C@@H](C)CCCCO[C@@H]1CN(C)Cc1ccc(C(=O)O)cc1`, the cytotoxicity call in the assay on HSkMC and in the assay with HepG2 was “inactive” throughout. Moreover, the growth inhibition call in the assay with S. aureus RN4220 was “inactive”.

Regarding `COc1ccc(OCC(=O)NCC(=O)O)cc1`, the cytotoxicity call with HSkMC and in the assay on HepG2 was “inactive” throughout. Also, in the assay with S. aureus RN4220, the growth inhibition call was “inactive”.

As for `C[C@@H]1CN([C@H](C)CO)C(=O)c2cc(NC(=O)CCC(F)(F)F)ccc2O[C@H]1CN(C)Cc1ccc(-c2ccccc2)cc1`, the cytotoxicity call in the assay on HSkMC was “inactive”. Moreover, the cytotoxicity call in the assay with HepG2 is “active”. Further, in the assay with S. aureus RN4220, the growth inhibition call is “inactive”.

As to `C[C@@H]1CN([C@H](C)CO)C(=O)c2cc(NS(=O)(=O)c3cccs3)ccc2O[C@@H]1CN(C)CC1CC1`, the cytotoxicity call in the assay on HSkMC and in the assay on HepG2 was “inactive” throughout. Moreover, the growth inhibition call with S. aureus RN4220 is “inactive”.

As to `COc1ccc(NC(=O)Nc2ccc3c(c2)C(=O)N([C@@H](C)CO)C[C@H](C)[C@@H](CN(C)CC2CCCCC2)O3)cc1`, the cytotoxicity call in the assay on HSkMC and in the assay with HepG2 was “inactive” each time. The growth inhibition call with S. aureus RN4220 is “inactive”.

Regarding `NC(=O)C1CCN(C(=O)c2ccc(NC3=N[C@H]4CS(=O)(=O)C[C@@H]4S3)cc2)CC1`, the cytotoxicity call in the assay on HSkMC (human skeletal muscle cells) and with HepG2 was “inactive” throughout. In addition, the growth inhibition call in the assay on S. aureus RN4220 was “inactive”.

Regarding `CCOC(=O)CCCCCC(=O)Nc1ccc2c(c1)C(=O)N([C@@H](C)CO)C[C@H](C)[C@H](CN(C)S(=O)(=O)c1ccc(OC)cc1)OCCCC[C@H](C)O2`, the cytotoxicity call with HSkMC and in the assay with HepG2 was “inactive” throughout. In the assay with S. aureus RN4220, the growth inhibition call was “inactive”.
